# Measurements: patent publication US11542275B2, “Substituted imidazolidin-2-one derivatives as PRMT5 inhibitors” (Aurigene Discovery Technologies Limited, priority 2018, dated 2023)
# Target: PRMT5/MEP50 Complex (Homo sapiens (Human), UniProt O14744)
# Assay: PRMT5 inhibition based on TR-FRET assay
# Format: biochemical
# Details: 32 nM PRMT5:MEP50 complex, 50 nM Histone-H4 peptide, 1 μM SAM, 90 minutes at room temperature
# Excerpt: Protein arginine methyltransferase 5 (PRMT5) is a type II arginine methyltransferase that catalyze mono- and symmetric demethylation on arginine residues of histone or non-histone proteins in presence of S-adenosylmethionine (AdoMet or SAM) a cofactor responsible for donating the methyl group. PRMT5 is reported to be overexpressed in several human cancers. To identify compounds that inhibit the PRMT5 and decrease its activity, a TR-FRET based assay has been established. Time-resolved fluorescence resonance energy transfer (TR-FRET) HTS assays are homogeneous proximity assays where the interaction of two dye-labeled binding partners is detected by the energy transfer between a donor and an acceptor dye, and the subsequent light emission by the acceptor dye. PRMT5 catalyzes Histone H4 peptide which is biotin tagged to the Lysine amino acid at carboxyl end, in presence of S-adenosyl-1-methionine (SAM) to methylate the peptide. The antibody specific to mono methylated H4 peptide (H4R3) with Ig conjugate binds to the methylated peptide, indirectly binding to the Europium lanthanide. SureLight Allophycocyanin-Streptavidin binds to the biotin tag of the peptide, therefore accepting the energy transferred from the Europium lanthanide. This energy transfer between Europium to SureLight Allophycocyanin is a direct measure of the activity/inhibition of the PRMT5 enzyme.
# Assay buffer: 20 mM BICINE (pH 7.6), 25 mM NaCl, 2 mM DTT, 0.01% Tween-20 and 0.01% BSA.
# The compound dilutions were prepared as 7.5% DMSO stock solutions in assay buffer. To 2 μL (7.5×) of test compound, 5 μL of PRMT5 enzyme prepared in assay buffer (Final concentration of 32 nM in 15 μL reaction volume) was added and allowed for 30 minutes pre-incubation time in a white polystyrene 384-well plate at room temperature. […] The plates were then read on Victor-3 with Excitation at 340 nm and Emissions collected at 615 and 665 nm in TR-FRET protocol. […]
row,IC50 [µM],SMILES
1,0.119,"O=C1N(Cc2ccc(C3CCN(Cc4nn[nH]n4)CC3)cn2)CCN1C[C@H](O)CN1CCc2ccccc2C1 [Compound 99, (R)-1-((5-(1-((2H-tetrazol-5-yl)methyl)piperidin-4-yl)pyridin-2-yl)methyl)-3-(3-(3,4-dihydroisoquinolin-2(1H)-yl)-2-hydroxypropyl)imidazolidin-2-one]"
2,0.026,"O=C1N(Cc2ccc(N3CCOCC3)cn2)CCN1C[C@H](O)CN1CCc2ccccc2C1 [Compound 4, (R)-1-(3-(3,4-dihydroisoquinolin-2(1H)-yl)-2-hydroxypropyl)-3-((5-morpholinopyridin-2-yl)methyl)imidazolidin-2-one]"
3,0.119,"CN(C)C(=O)C1CCN(c2ccc(CN3CCN(C[C@H](O)CN4CCc5ccccc5C4)C3=O)nc2)CC1 [Compound 97, (R)-1-(6-((3-(3-(3,4-dihydroisoquinolin-2(1H)-yl)-2-hydroxypropyl)-2-oxoimidazolidin-1-yl)methyl)pyridin-3-yl)-N,N-dimethylpiperidine-4-carboxamide]"
